Laboratory results reported in PubChem BioAssay AID651820 (National Center for Advancing Translational Sciences (NCATS), 2012).
The campaign covered roughly 340,000 compounds. About 12,000 (3.5%) were called active. The shares of active, inactive and inconclusive entries below differ from those in the screen. Calls come from the whole dose curve; as a rule, active = well fitted inhibition curve with a large enough effect; inconclusive = small, poorly fitted or top-dose-only effect, or another doubt; inactive = no such curve, though single readings can be large or run the other way. Potencies of inconclusive entries are left out as doubtful fits.

experiment: qHTS Assay for Inhibitors of Hepatitis C Virus (HCV); details: Huh7.5.1 HCVcc-Cre (HCVcc is cell-culture hepatitis C virus) infection, luciferase reporter, 44 h; activity change, negative = inhibition: at 41.8 µM (top of the series) unless noted
Procedure, shortened: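 HCVcc-Cre virus at an moi near 0.5 was added right after compound to cells cultured 4 h from seeding (1,000 cells/well). Luciferase activity was determined 44 h later, 15 min after substrate addition at RT.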
% is set by controls: 0 for no effect and ±100 for the full control effect; potency is the fitted concentration of half-maximal effect; tags give direction and shape of the fitted curve.

Compound | Potency | activity change, negative = inhibition
O=C(/C=C/c1cn(-c2ccccc2)nc1-c1cccs1)NCCN1CCOCC1 | active: 14.1 µM | –
N#Cc1ccc(NC(=O)c2cccs2)nc1 | – | inactive: 12.8%
Cc1cc(C(=O)N2CCC(Cc3ccccc3)CC2)ccc1[N+](=O)[O-] | inconclusive [inhibitor, partial curve] | –
CCOC(=O)N1CCN(C(=O)CSCc2nc(-c3ccccc3F)oc2C)CC1 | inconclusive [inhibitor, single point] | –
O=C(Nc1ccc(Cl)c(Cl)c1)Nc1ccccc1O | inconclusive [inhibitor, single point] | –
COc1ccc(N2CCN(C(=O)c3cccc(Br)c3)CC2)c([N+](=O)[O-])c1 | inconclusive [inhibitor, single point] | –
CN(CCCNC(=O)c1cccc(N2CCCC2=O)c1)c1ccccc1 | inconclusive [inhibitor, single point] | –
CCc1nnc(NC(=O)c2ccc3c(=O)n4c(nc3c2)CCCCC4)s1 | inconclusive [inhibitor, partial curve] | –
COc1ccc(NC(=O)/C=C/c2cc(Br)ccc2OC)cc1 | inconclusive [inhibitor, single point] | –
O=C1N/C(=N/N=C/c2ccccc2)SC1(c1ccccc1)c1ccccc1 | – | inactive: -7.53%
CN(C)S(=O)(=O)c1cccc(NC(=O)c2ccc(COc3ccccc3)cc2)c1 | active: 10 µM | –
O=[N+]([O-])c1cc(/C=N/Nc2nc3ccccc3[nH]2)c(O)cc1O | inconclusive [inhibitor, partial curve, poor fit] | –
COC(=O)C1=C(c2ccc(F)cc2OCc2ccccc2)C[C@@H]2CC[C@H]1N2C(=O)NCc1ccccc1Cl | inconclusive [inhibitor, single point] | –
O=C1OC2(O)C3C4C=CC(C4)C3C(=O)N2c2ccccc21 (centres undefined) | – | inactive: 30.1%
CC(C)CCNC(=O)C(c1ccc(O)cc1)N(C(=O)C1COc2ccccc2O1)c1cccc(O)c1 (centres undefined) | – | inactive: -25%
COc1ccc2cc(-c3ccccc3)c(=O)oc2c1 | inconclusive [inhibitor, single point] | –
O=C(c1cnccn1)N(Cc1cccs1)C1(C(=O)NC2CCCC2)CCCCC1 | – | inactive: 3.56%
Cc1ccccc1CN1C(=O)c2ccccc2S(=O)c2ccc(C(=O)NCCCN3CCOCC3)cc21 (centres undefined) | inconclusive [inhibitor, single point] | –
C=CC(=O)Nc1cccc(Oc2cc(Cl)nc3[nH]ccc23)c1 | inconclusive [inhibitor, single point] | –
CC1CCCC(NC(=O)CSC2CCCCC2)C1C (centres undefined) | – | inactive: 0.592%
Brc1ccc(CN2CCNCC2)s1 | inconclusive [inhibitor, partial curve] | –
CCCCn1c(=O)c(C(=O)NCc2ccncc2)c(O)c2ccccc21 | inconclusive [inhibitor, single point] | –
CCCNC(=O)c1cccc(Br)c1 | – | inactive: 7.41%

Compound | Potency | activity change, negative = inhibition
CCCCNC(=O)C(CC)Sc1nc2sc(C(=O)OC)c(C)c2c(=O)n1N (centres undefined) | inconclusive [inhibitor, single point] | –
COc1cccc(CNC(=O)C(c2ccc(Cl)cc2)C(C)C)c1 (centres undefined) | – | inactive: 14.2%
Nc1c(Cl)ncnc1N/N=C/c1ccccn1 | inconclusive [inhibitor, full curve] | –
O=C(NN=C1CCC(=NNC(=O)c2ccccn2)CC1)c1ccccn1 | – | inactive: 11.7%
CN(CC(=O)Nc1ccccc1Br)C(=O)c1ccccc1Sc1ccccc1C#N | inconclusive [inhibitor, partial curve] | –
COc1c(C(=O)NNC(=O)c2ccccc2)csc1Br | – | inactive: -24.5%
Cc1ccc2nc(Nc3nc(-c4ccccc4)cc(=O)[nH]3)nc(C)c2c1 | inconclusive [inhibitor, partial curve] | –
CCOC(=O)c1cccc(NC(=O)CCc2nc(-c3ccccc3F)no2)c1 | inconclusive [inhibitor, single point] | –
CCOc1ccc(NC(=O)CN(C)C(=O)Cc2c(C)nc3ccccc3c2C)cc1OCC | inconclusive [inhibitor, partial curve] | –
O=C(NCc1cccnc1)C1CCN(c2ccc(S(=O)(=O)N3CCOCC3)cc2Cl)CC1 | inconclusive [inhibitor, single point] | –
Cc1ccccc1C(=O)N/N=C/c1ccccn1 | inconclusive [inhibitor, partial curve, poor fit] | –
COc1ccc(NC(=O)CN(C)CC(=O)N(C)C2(C#N)CCC(C)CC2)cc1 (centres undefined) | – | inactive: -8.71%
CCOC(=O)Nc1ccc2c(c1)N(C(=O)CCN1CCN(CCO)CC1)c1ccccc1S2 | inconclusive [inhibitor, single point] | –
COc1cccc(CSc2nc(N)cc(N)n2)c1 | – | inactive: -2.39%
CSCCC(NC(=O)c1ccco1)C(=O)N1CCN(C(c2ccccc2)c2ccccc2)CC1 (centres undefined) | inconclusive [inhibitor, partial curve] | –
Cc1noc(C)c1NC(=O)N(C)C[C@@H]1Oc2ccc(NC(=O)CCC(F)(F)F)cc2CC(=O)N([C@@H](C)CO)C[C@@H]1C | – | inactive: -0.641%
O=C(Nc1ccc(-c2csc(Nc3cccc(C(F)(F)F)c3)n2)cc1)c1cccc(C(F)(F)F)c1 | inconclusive [inhibitor, partial curve] | –
COc1ccc(OC)c(NC(=O)c2cccnc2Sc2cc(C)ccc2C)c1 | inconclusive [inhibitor, single point] | –
CCN(CC)S(=O)(=O)c1cccc(-c2n[nH]c(=S)n2/N=C/c2ccc(Br)cc2)c1 | inconclusive [inhibitor, full curve, poor fit] | –
COc1cc(NC(=O)c2cccs2)ccc1NC(=O)c1cc2ccccc2o1 | inconclusive [inhibitor, full curve] | –
CC(=O)c1cccc(-n2nnnc2SCC(=O)N2CCCC2)c1 | inconclusive [inhibitor, single point] | –
CCOc1ccc(OCC)c(NC(=O)CN(C)S(=O)(=O)c2cccc3nsnc23)c1 | inconclusive [inhibitor, single point] | –
CCN(Cc1ccccc1)S(=O)(=O)c1c[nH]c(C(=O)OC)c1 | inconclusive [inhibitor, single point] | –

Compound | Potency | activity change, negative = inhibition
CCOC(=O)c1c(C)oc2ccc(OCC(N)=O)cc12 | inconclusive [inhibitor, single point] | –
CC(C)=CCN1CCN(Cc2cccc3nonc23)CC1CCO (centres undefined) | – | inactive: 14.4%
COc1cc(CO)ccc1OCC(=O)N1CCc2ccccc21 | – | inactive: -14.9%
Cc1onc(-c2c(F)cccc2Cl)c1C(=O)Nc1cccc(S(=O)(=O)N2CCOCC2)c1 | – | inactive: -10.9%
COC(=O)c1cc2c(ccn2-c2ccc(F)cc2)n1C(C)C | – | inactive: -29.6%
C/C(=N\NC(=S)NC1CCCCC1)c1cccc(Br)c1 | – | inactive: 0.232%
C#CCOCCOCCOCCNc1nc(N2CCN(C(=O)CCCCCCCCCCNC(=O)[C@H]([C@@H](C)CC)n3cc(CCCCN=C(N)N)nn3)CC2)nc(N2CCN(C(=O)CCCCCCCCCCNC(=O)[C@H](CO)n3cc(CCCCCN)nn3)CC2)n1 | inconclusive [inhibitor, single point] | –
COc1ccc(OC)c(NC(=O)CN(c2ccc(C)cc2)S(=O)(=O)c2c(C)n[nH]c2C)c1 | inconclusive [inhibitor, partial curve] | –
NC[C@H](Cc1ccccc1)NCCc1cc(C(F)(F)F)cc(C(F)(F)F)c1 | inconclusive [inhibitor, full curve, poor fit] | –
CC(Oc1ccc(-c2ccccc2)c(F)c1)c1ccn(S(=O)(=O)c2ccc(Cl)cc2)n1 (centres undefined) | inconclusive [inhibitor, single point] | –
Cc1ccc(C(=O)CC(=O)c2ccccc2)cc1 | – | inactive: 3.71%
Cc1cc(/C=N/NC(N)=S)c(C)n1-c1ccc(Cl)cc1 | inconclusive [inhibitor, partial curve, poor fit] | –
COc1ccc2[nH]c(C)c(CCNCc3cn(C)c4ccccc34)c2c1 | inconclusive [inhibitor, partial curve] | –
COc1cc2c(cc1OC)-c1c(OC)c(OC)cc3c1[C@H](C2)[N+](C)(C)CC3 | inconclusive [inhibitor, single point] | –
CCOC(=O)Cn1c(S(=O)(=O)Cc2ccc(Cl)cc2)nc(-c2ccccc2)c1-c1ccccc1 | active: 35.5 µM | –
CCCC(=O)Nc1ccc(Cl)c(NC(=O)c2ccc(Br)o2)c1 | inconclusive [inhibitor, partial curve, poor fit] | –
Cn1cc(C(c2ccccn2)c2cn(C)c3ccccc23)c2ccccc21 | inconclusive [inhibitor, partial curve] | –
CC1CCc2nc3ccccc3c(C(=O)OCC(=O)N3CCc4ccccc43)c2C1 (centres undefined) | inconclusive [inhibitor, partial curve] | –
Cc1cc(C(F)F)n2ncc(C(=O)NC3CCCCCC3)c2n1 | inconclusive [inhibitor, full curve, poor fit] | –
C/C(N)=C(/C#N)C(=O)CSc1nnnn1-c1ccc(C)cc1C | inconclusive [inhibitor, single point] | –
Nc1nc2nccc(-c3ccc(Cl)cc3)n2n1 | – | inactive: 15.6%
CNc1nc(Nc2ccc(C)c(Cl)c2)nc(N)c1[N+](=O)[O-] | active: 11.2 µM | –
Cc1cc(C(=O)Nc2cccc(-c3ccc(N4CCOCC4)nn3)c2)ccc1[N+](=O)[O-] | active: 10 µM | –
